Assay results from PubChem BioAssay AID493208 (National Center for Advancing Translational Sciences (NCATS), 2011).
Among all 44,000 compounds or so, about 340 (0.77%) were called active. Another 5% or so got no clear call; they are omitted. Calls follow the shape of the dose curve; as a rule, active = well fitted inhibition curve with a large enough effect; inconclusive = small, poorly fitted or top-dose-only effect; inactive = flat fitted curve, though single readings scatter. The list shows a part of the results.

experiment: Acumen qHTS Assay for Inhibitors of the mTORC1 Signaling Pathway in MEF (Tsc2-/-, p53-/-) Cells: Sytravon; conditions: phospho-rpS6 immunofluorescence/PI, 24 h; series mostly up to 38.3 µM; activity change, negative = inhibition: at the top concentration;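 also: plate controls were DMSO for no effect and rapamycin for full effect; nearly all actives have a fitted effect of over 50% in size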
Outline: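 Readout is phospho-S6 Alexa 488 signal normalized to PI per well, reported as % active cells with thresholds set from rapamycin (7.5 nM) and DMSO controls. Cells: Tsc2-/-, p53-/- MEFs, 24 hrs compound at 37 C; PI cell number serves as viability.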

Activity change, negative = inhibition, inactive:
CCc1nnc(NC(=O)CSc2nc3c([nH]c4ccccc43)c(=O)n2-c2ccc(F)cc2)s1 -1.63%, Cc1ccc2oc(=O)c3cc(C(=O)Nc4ccc(C)c(F)c4)sc3c2c1 1.26%, COc1ccccc1/C=C/c1onc(C)c1S(=O)(=O)N1CCC(C(=O)N2CCC(C)CC2)CC1 0.64%, Cc1c(Cl)cccc1NC(=O)c1cc(S(=O)(=O)N2CCCCC2)cn1C -0.647%, Cc1ccc(-n2nc(C)c3c(C)cc(=O)n(CC(=O)Nc4cc(Cl)ccc4C)c32)cc1 -6.74%, Cc1cccn2c(=O)cc(COc3ccc(NC(=O)C(C)C)cc3)nc12 -18.8%, COC(=O)c1sccc1S(=O)(=O)N(CC(=O)Nc1ccccc1C)c1ccc(Cl)cc1 1.82%, Cc1ccccc1NC(=O)CSc1nc2ccc(NC(=O)CCc3ccccc3)cc2s1 -8.07%, COc1ccc(C(=O)NCc2nc(-c3cccc(C)c3)no2)cc1OC -5.34%, Cc1nc(-c2ccc(S(=O)(=O)NCc3ccc(F)cc3)cc2)co1 0.175%, COc1cccc(C(=O)COC(=O)c2cc(-c3cccs3)nc3ccccc23)c1 -1.51%, Cc1cc(NS(=O)(=O)c2cn(C)c(C)n2)ccc1Br -5.2%, Cc1ccccc1OCC(=O)Nc1nnc(SCc2cc(=O)n3cc(Cl)ccc3n2)s1 5.54%, COc1cccc(CNC(=O)CCc2c(C)nc3c4c(C)cc(C)nc4nn3c2C)c1 1.44%, Cc1ccc(C)c(CN2C(=O)c3ccccc3S(=O)(=O)c3ccc(C(=O)NCCc4ccc(Cl)cc4)cc32)c1 -10.7%, Cc1ccc(CCNc2nc3ccccc3c3nc(-c4cccnc4)nn23)cc1 -1.95%, CCc1ccccc1NC(=O)C1CCN(c2nc3ccccc3[nH]2)CC1 1.78%, CCOC(=O)c1c(C)[nH]c(C)c1S(=O)(=O)NCC(=O)NCc1cccc(Br)c1 -8.78%, CC(C)CCSc1nnc2n(-c3ccccc3)c(=O)c3c4c(sc3n12)CC(C)CC4 (stereo unspecified) 13.3%, COC(=O)c1ccccc1N(C)S(=O)(=O)c1cc2c3c(c1)CC(=O)N3CCC2 0%, CCc1ccc(NC(=O)Cn2c(=O)nc(-c3ccccc3F)c3cc(Cl)ccc32)cc1 0%, Cc1cc(C)nc(-n2nc(C)c3c2N(Cc2ccccc2C)C(=O)CC3c2ccc(Cl)cc2)n1 (stereo unspecified) -0.795%, O=C(Nc1ccc(Oc2ccccc2)cc1)c1ccc(F)c(S(=O)(=O)N2CCN(c3ccccc3F)CC2)c1 12.4%, Cc1ccc2cc3cc(C(=O)N4CCN(c5ccccc5)CC4)sc3nc2c1 -13.6%, COc1cccc(NC(=O)/C(C#N)=C/c2ccc(-c3ccc(C)cc3)o2)c1 -15%, O=C(Cn1cc(S(=O)(=O)Cc2cccc(Cl)c2)c2ccccc21)NCc1ccccc1Cl -1.64%, CCn1cc(C(=O)N2CCN(c3cccc(C)c3)C(C)C2)c(=O)c2cc(S(=O)(=O)N3CCOCC3)ccc21 (stereo unspecified) -20.7%, COc1ccc(-c2nsc(NC(=O)c3oc4ccccc4c3C)n2)cc1 1.59%, CCCNc1ncnc2c1c(-c1ccccc1)cn2-c1ccccc1 9.94%, O=C(Cn1ccc2cc(S(=O)(=O)N3CCCCCC3)ccc21)NCc1cccc(Cl)c1 -7.96%, Cc1coc2c(C)c3oc(=O)c(CCC(=O)N4CCCCC4)c(C)c3cc12 3.7%, N#Cc1ccccc1OCC(=O)N1CCN(c2ccccc2)CC1 1.34%, CN(C)c1ccc(CNC(=O)CCCN2C(=O)CCn3nc(-c4cn(C)c5ccccc45)cc32)cc1 -0.413%, Cc1c(NS(=O)(=O)c2ccc(Cl)cc2)c(=O)n(-c2ccccc2)n1C 2.23%, Cc1nc2c(c(C)c1CCC(=O)Nc1ccc(F)cc1)c(=O)n(C)c(=O)n2C -9.54%, CCc1cccc(-n2nnc(S(=O)(=O)c3ccc(OC)cc3)c2C)c1 -12.5%, COc1ccc(C2=NN(CCC(=O)NCCc3ccccc3)C(=O)CC2)cc1 -7.47%, COCCn1c(C)cc(O)c(C(c2ccccc2F)N2CCN(c3ccccc3)CC2)c1=O (stereo unspecified) -20.4%, Cc1ccc(Cn2cc(CCC(=O)NCC(C)c3ccccc3)c3ccccc32)cc1 (stereo unspecified) 0%, COc1ccc(NC(=O)Cn2nnc(-c3nc(-c4ccncc4)no3)c2N)cc1OC -8.17%, Cc1cccc(C)c1NC(=O)C1CCCN1S(=O)(=O)c1cccc2nsnc12 (stereo unspecified) -9.7%, Cc1ccc(NC(=O)c2cccc(NC(=O)N3CCSc4ncccc43)c2)cc1F 0.114%, CCOc1ccc(CNC(=O)c2ccc(NC(=O)N3CCSc4ncccc43)cc2)cc1 -10.5%, CCCN1C(=O)c2oc3cc(C)cc(C)c3c(=O)c2C1c1ccc(F)cc1 (stereo unspecified) 0.814%, COc1ccc(-c2cc(C(F)(F)F)nc(SCC(=O)Nc3ccc(O)cc3)n2)cc1OC -0.492%, Cc1ccc(C)c(NC(=O)c2cnc3sc(N4CCOCC4)nn3c2=O)c1 -11.5%, CCN(CC)CCCNC(=O)CCc1c(C)nc2c(c1C)c(=O)n(C)c(=O)n2C -10.6%, COc1ccc(-c2nc3cc(NC(=O)COc4ccc(C)c(C)c4)ccc3o2)cc1 -0.22%, Cc1cc(=O)c2cc(C(=O)Nc3cccc(C)c3C)ccc2[nH]1 0.0248%, CCOc1ccc(C(=O)NCCc2sc(-c3ccc(F)cc3)nc2C)cc1 0.901%, COc1ccc(Nc2ncc(C(=O)N3CCN(c4ccccc4OC)CC3)c3ccccc23)cc1 4.09%, CCOC(=O)c1ccc(NC(=O)CN2C(=O)c3cccnc3Sc3ccccc32)cc1 -21%, O=C(Cn1ncc2c3ccccc3n(Cc3cccc(Cl)c3)c2c1=O)NCCC1=CCCCC1 2.68%, Cc1ccccc1Cn1c(=O)n(CCCCCC(=O)NCc2ccc3c(c2)OCO3)c(=O)c2sccc21 -12.5%, CCN(CC)c1ccc(CNS(=O)(=O)c2cc3c(cc2C)NC(=O)CO3)cc1 14.1%, COc1ccc(NC(=O)CSc2ncc3c(n2)-c2ccccc2N(C)S3(=O)=O)cc1Cl 6.56%, Cn1c(SCc2ccccc2Cl)nc(=O)c2c1NC(=O)CC2c1cc(F)ccc1F (stereo unspecified) -3.3%, CCOc1ccc(NC(=O)Nc2c[nH]c(=O)[nH]c2=O)cc1 0.217%, CCOC(=O)c1ccccc1NC(=O)Cn1c(=O)n(-c2ccc(CC)cc2)c(=O)c2c(C)c(C(=O)N(C)C)sc21 -5.19%, CCOc1ccccc1CNC(=O)c1ccc2c(c1)nc1n2CCC(C)C1 (stereo unspecified) 0%, CC(C)Sc1nc2sc3c(c2c(=O)n1-c1ccccc1)CCCC3 3.58%
